Data published in PubChem BioAssay AID1345082 (National Center for Advancing Translational Sciences (NCATS), 2018).
Screen size: about 94,000 compounds; about 4,000 (4.3%) were called active. The inconclusive results got no clear call from the source; some entries with a clear call stand among them for comparison. Calls come from the whole dose curve; as a rule, active = well fitted inhibition curve with a large enough effect; inconclusive = small, poorly fitted or top-dose-only effect; inactive = no such curve, though single readings can be large or run the other way. Potencies of inconclusive entries are doubtful fits and often do not repeat.

experiment: Cytotoxic Profiling in NIH 3T3 Cell Line of Diverse Libraries Using Quantitative High-Throughput Screening; conditions: NIH 3T3 viability, CellTiter-Glo ATP luminescence, 48-72 h; activity change, negative = cytotoxicity: at 96.7 µM (top of the series) unless noted; series mostly up to 96.7 µM; note: nearly all actives have a fitted effect of over 55% in size
Procedure, shortened: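 Cytotoxicity was measured by CellTiter-Glo ATP luminescence after 48 or 72 h compound exposure at 37 °C. Mouse NIH 3T3 fibroblasts were seeded at 400 cells/well and dosed by 23 nL pin transfer.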
% is set by controls: 0 for no effect and ±100 for the full control effect; potency is the fitted concentration of half-maximal effect; tags give direction and shape of the fitted curve.

Row | Structure (SMILES) | activity change, negative = cytotoxicity | Potency | outcome
1 | CCCn1c(C)cnc1CC1CCCN(C(=O)c2ccncc2)C1 (stereo not drawn) | inactive: -15.4% |  | 
2 | CC(C)Oc1cc(F)cc(-c2cc(NCCO)ncn2)c1 |  | inconclusive: 50.1 µM [inhibitor, partial curve, poor fit] | 
3 | CC(C)c1nc2c(c(-c3ccc(Cl)cc3)n1)CCN(C(=O)c1ccccc1F)CC2 | inactive: -18.4% |  | 
4 | O=c1c2nc(-c3ccsc3)ccc2ncn1-c1ccccc1 |  | inconclusive: 89.1 µM [inhibitor, partial curve, poor fit] | 
5 | COc1ccc(Nc2ccnc(N3CCC(C(=O)N4CCCC4)CC3)n2)cc1 |  | inconclusive: 44.7 µM [inhibitor, partial curve, poor fit] | 
6 | Cc1nc(NCc2ccc(C(=O)N3CCCCC3)cc2)cc(C2CC(N)C2)n1 (stereo not drawn) | inactive: -20.1% |  | 
7 | CSc1cccc(NC(=O)N2CCC(OC3CCN(Cc4ccccc4)CC3)CC2)c1 |  | inconclusive: 44.7 µM [inhibitor, partial curve, poor fit] | 
8 | Clc1cc(NCc2ccccc2Cl)n2nccc2n1 |  | active: 20 µM | 
9 | Cn1c2c(c3ccccc31)CC=C1C[C@@H](O)CC[C@@]12C |  | inconclusive: 50.1 µM [inhibitor, partial curve, poor fit] | 
10 | O=C(Cn1cccc1-c1nc(-c2ccccc2)no1)Nc1ccccc1F |  | inconclusive: 70.8 µM [inhibitor, single point] | 
11 | Cc1ccc(C2Cn3nnc(-c4noc(-c5c(F)cccc5F)n4)c3CO2)cc1 (stereo not drawn) | inactive: 0.845% |  | 
12 | Cc1ccccc1CC1(CO)CCCN(c2ccc(-c3nccn3C)nn2)C1 (stereo not drawn) |  | inconclusive: 15.8 µM [inhibitor, full curve, poor fit] | 
13 | COc1ccc(-c2cc(-c3ccc([S+](C)(=O)[O-])cc3)cn3cncc23)cc1 |  | inconclusive: 39.8 µM [inhibitor, partial curve] | 
14 | CN(Cc1ccccc1)Cc1nnc(C(=O)N2CCC[C@@H]2c2ccc(Br)cc2)n1Cc1ccccc1 |  | active: 17.8 µM | 
15 | CCNC(=O)N1CCCC(Cc2ncc(C)n2C(C)C)C1 (stereo not drawn) | inactive: -15% |  | 
16 | COc1ccc(CN(C)C2CCOc3ccccc32)cc1 (stereo not drawn) | inactive: -25.1% [at 138 µM] |  | 
17 | CC(=O)Nc1ccc(C(=O)N2CCC3(CC2)N=C(c2ccc(Cl)cc2)NO3)cc1 | inactive: -19.4% |  | 
18 | O=C(c1cccnc1)N1CCOCC2(C1)CN([S+](=O)([O-])c1ccccc1)C2 |  | inconclusive: 100 µM [inhibitor, partial curve, poor fit] | 
19 | C[C@@H]1CNC[C@H]1c1nc(-c2ccncc2)no1 |  |  | inactive
20 | COc1ccc(CCNC(=O)CNC(=O)c2cccc(-c3ccsc3)c2)cc1 | inactive: -9.32% |  | 
21 | O=C(c1cscn1)N1CCC2(CCCN(CCC3CCCCC3)C2=O)C1 (stereo not drawn) |  | inconclusive: 8.91 µM [inhibitor, full curve, poor fit] | 

Row | Structure (SMILES) | activity change, negative = cytotoxicity | Potency | outcome
22 | N#Cc1ccc(CN2CCc3ncc(C(=O)NCCOc4ccccc4)n3CC2)cc1 |  | inconclusive: 35.5 µM [inhibitor, partial curve, poor fit] | 
23 | CCOc1ccc(NC(=O)c2ccc3c(c2)N(CC)C2CCCCCN2C3=O)cc1 (stereo not drawn) |  | inconclusive: 50.1 µM [inhibitor, partial curve, poor fit] | 
24 | O=C(NCc1ccccc1)c1nc2sccn2c1-c1ccncc1 |  | inconclusive: 56.2 µM [inhibitor, partial curve, poor fit] | 
25 | O=C(c1ccc2c(c1)OCO2)N1CCC2(CC(c3cccc(C(F)(F)F)c3)=NO2)C1 (stereo not drawn) |  | inconclusive: 44.7 µM [inhibitor, partial curve, poor fit] | 
26 | O=C(Nc1ccc2n(c1=O)C[C@H]1C[C@@H]2CN(C(=O)COc2ccccc2)C1)c1ccccc1 |  | inconclusive: 70.8 µM [inhibitor, single point] | 
27 | O=C(CCCc1ccccc1)N1CCC[C@H]1c1nc(-c2ccccc2Cl)no1 |  | inconclusive: 39.8 µM [inhibitor, partial curve, poor fit] | 
28 | O=C(NC[C@H]1Cn2c(-c3ccc(Cl)cc3)cnc2CO1)C1CCCC1 |  | inconclusive: 100 µM [inhibitor, partial curve] | 
29 | CCNc1ncnc2sc3c(c12)CCN(Cc1ccncc1)C3 |  | inconclusive: 50.1 µM [inhibitor, partial curve, poor fit] | 
30 | COc1ccccc1-c1[nH]ncc1CN1CCCCCNC(=O)CC1c1ccccc1 (stereo not drawn) |  | inconclusive: 44.7 µM [inhibitor, partial curve, poor fit] | 
31 | O=C(NCC1CC1)c1coc(COc2ccc3c(c2)C(c2cccc(F)c2)N(C(=O)C2CC2)CC3)n1 (stereo not drawn) |  | inconclusive: 11.2 µM [inhibitor, full curve, poor fit] | 
32 | COc1cncc(NC(=O)C2=NO[C@@H]3CN(Cc4cccc(F)c4)C[C@H]23)c1 |  | inconclusive: 79.4 µM [inhibitor, partial curve, poor fit] | 
33 | CCOC(=O)CNC(=O)c1ccc(CN2C(=O)NC3(CCS(=O)(=O)CC3)C2=O)cc1 | inactive: 3.24% |  | 
34 | O=[S+]([O-])(Nc1ccccc1)c1ccc2c(c1)OCCN(Cc1cscn1)C2 |  | inconclusive: 56.2 µM [inhibitor, partial curve, poor fit] | 
35 | Cc1ccc(-c2cc(C(=O)N[C@H]3Cc4ccccc4[C@@H]3N)n[nH]2)s1 |  | inconclusive: 79.4 µM [inhibitor, partial curve, poor fit] | 
36 | CNC(=O)c1cccc(-c2cnc(Nc3ccc(N4CCOCC4)cc3)c3c2CCO3)c1 |  | inconclusive: 89.1 µM [inhibitor, partial curve] | 
37 | COc1cccc(C(=O)N2CCN(c3cc(C(F)(F)F)nc(C)n3)CC2)c1OC | inactive: -30% |  | 
38 | CCNC(=O)CCc1c(C)nn(-c2ccc(F)cc2)c1Oc1ccccc1F |  | inconclusive: 35.5 µM [inhibitor, partial curve, poor fit] | 
39 | COc1ccccc1C(=O)Nc1ccc2c(c1)CN(Cc1ccc(F)cc1)C(=O)C(C)O2 (stereo not drawn) |  | inconclusive: 31.6 µM [inhibitor, full curve] | 
40 | CCCn1cc(-c2ccnc(NC3CCN(Cc4cccnc4)CC3)n2)c(C)n1 |  | inconclusive: 11.2 µM [inhibitor, partial curve, poor fit] | 
41 | O=C(c1ccccc1C(F)(F)F)N1C[C@@H](CO)[C@H](c2ccccn2)C1 |  | inconclusive: 70.8 µM [inhibitor, partial curve, poor fit] | 
42 | CCc1ccc(C(=O)N2CCN(c3cc(-c4ccc(F)cc4)[nH]n3)CC2)cc1 |  | inconclusive: 35.5 µM [inhibitor, partial curve, poor fit] | 

Row | Structure (SMILES) | activity change, negative = cytotoxicity | Potency | outcome
43 | Cc1ccc(CN2CCCOCCNC(=O)[C@@H]3CCCC[C@@H]32)s1 | inactive: -26.6% |  | 
44 | CN(C)c1cccc(C(=O)N2CCC(n3cc(-c4nc(-c5ccccc5)no4)nn3)CC2)c1 |  | inconclusive: 50.1 µM [inhibitor, partial curve, poor fit] | 
45 | CCOC(=O)C1(Cc2ccc(F)cc2)CCCN(C(=O)c2ccc(C)s2)C1 (stereo not drawn) |  | inconclusive: 50.1 µM [inhibitor, partial curve, poor fit] | 
46 | CC1(CCCCc2ccccc2)COc2ccc(C(=O)NCc3cnccn3)cc2N1 (stereo not drawn) |  | inconclusive: 89.1 µM [inhibitor, single point] | 
47 | CN(C)CCNC(=O)Cc1c[nH]c2ncc(-c3ccccc3)cc12 |  | inconclusive: 56.2 µM [inhibitor, partial curve, poor fit] | 
48 | CC(C)CNC(=O)C1CCc2nnc(-c3cccc(C(F)(F)F)c3)n21 (stereo not drawn) | inactive: -15.1% |  | 
49 | COc1cccc(-c2cc3c(=O)n(CCNC(=O)C4CCN(C(C)=O)CC4)ccn3n2)c1 | inactive: -5.48% |  | 
50 | O=C(NCC1CC1)c1cc(C2CC2)nc2onc(C3CCCNC3)c12 (stereo not drawn) | inactive: -12.6% |  | 
51 | Cc1nn(-c2ccccc2)c2c1C(C)N(C1CCN([S+](C)(=O)[O-])C1)C2=O (stereo not drawn) |  | inconclusive: 70.8 µM [inhibitor, partial curve, poor fit] | 
52 | CSc1ccc(CNC(=O)c2cc3c(N4CCSCC4)nc(C)cn3n2)cc1 |  | inconclusive: 17.8 µM [inhibitor, full curve] | 
53 | Cc1cc(Cl)ccc1OCC(=O)N1[C@@H]2CC[C@H]1CC(NC(=O)c1ccncc1)C2 (stereo partly drawn) |  | inconclusive: 44.7 µM [inhibitor, partial curve, poor fit] | 
54 | CC(C)c1noc(CC2CCN(C(=O)c3ccc(N(C)C)cc3)CC2)n1 |  | inconclusive: 35.5 µM [inhibitor, partial curve, poor fit] | 
55 | CC1=C[C@@H](CNC(=O)[C@@H]2CCCC[C@@H]2C(=O)O)[C@H](C(C)C)C[C@H]1Cc1nc2c(C)cccc2[nH]1 | inactive: -4.3% |  | 
56 | CNC(=O)C1CCCN1Cc1cccc(-c2ccc(C)c(Cl)c2)c1 (stereo not drawn) |  | active: 35.5 µM | 
57 | CC(C)(C)OC(=O)NCCCNC(=O)[C@@H]1CCCN1c1ccnc2ccnn12 |  | inconclusive: 25.1 µM [inhibitor, partial curve, poor fit] | 
58 | Cc1cccc(CN2C[C@@H]3C(=O)N(CCCN4CCCC4=O)C(=O)[C@@H]3C2)c1 |  |  | inactive
59 | COC[C@@H]1[C@H](C(=O)Nc2ccc(OC)nc2)CCC(=O)N1C |  | inconclusive: 44.7 µM [inhibitor, partial curve, poor fit] | 
60 | O=C(NCC1CCCO1)c1cc2n(n1)CC(c1ccc(Br)cc1)OC2 (stereo not drawn) |  | inconclusive: 44.7 µM [inhibitor, partial curve, poor fit] | 
61 | CCC(CC)C(=O)N[C@H]1C[C@@H](Cc2cc(COc3ccccc3)on2)C1(C)C |  | active: 70.8 µM | 
62 | Clc1cc(NCC2CCCCC2)n2nccc2n1 |  | inconclusive: 28.2 µM [inhibitor, full curve] | 
63 | Cc1nn(Cc2ccccc2)c(C)c1[C@@H]1C=C[C@@H](NC(=O)CC2(CC(=O)O)CCCC2)C1 |  | inconclusive: 25.1 µM [inhibitor, partial curve] | 
